The list shows a part of the results.
B1: chr22:21763623:21763656:-|3pUTR|ENSG00000100030|msi1_unk|FALSE|overlapping (ssRNA)
RNA: GGGAGUUCUACAGUCCGACGAUCGUGCUUCCGUCUCCGGAAUCCUUGGGGAGCACUUGUCCACGUCUUUUCUCAUAUCAUGGUAGUCACUAACAUAUAUAAGGUAUGUGCUAUUGGCCCAGCUUUUAGAAAAUGCAGUCAUUUCAACAGAGGAUUGAGCAUCA
B2: chr17:78853230:78853302:-|3pUTR|ENSG00000035862|msi1_unk|FALSE|overlapping (ssRNA)
RNA: GGGAGUUCUACAGUCCGACGAUCCUCUUCUCCUAUUUUCAUCCUGCAAGCAACUCAAAAUAUUUAAAAUAAAGUUUACAUUGUAGUUAUUUUCAAAUCUUUGCUUGAUAAGUAUUAAGAAAUAUUGGACUUGCUGCCGUAAUUCAACAGAGGAUUGAGCAUCA
B3: chr17:61865808:61865921:-|3pUTR|ENSG00000108506|unk|FALSE|unique (ssRNA)
RNA: GGGAGUUCUACAGUCCGACGAUCUUCUAUGAGAAUGAGUUUGUAGCUGUUUCAAAUCAUGAAGUGCAUAGUAUCACAUGUGAUAGAAUAUUUAUAACUUUUUAUUAGAUGCUUAAUGUUCAAUUAAGUAAUUUUGAUGUGAAACAACAGAGGAUUGAGCAUCA
B4: chr8:144773268:144774605:-|CDS|ENSG00000196378|control|control|control (ssRNA)
RNA: GGGAGUUCUACAGUCCGACGAUCCACCAGAGGAUUCACACUGGGGAGAAACCCUACAAGUGUGGGGAGUGUGGGAAGCACUUUAGCGCCUACUCUUCCCUGAUUUAUCACCAGAGAAUCCACACCGGAGAGAAACCCUAUAAACAACAGAGGAUUGAGCAUCA
B5: chr19:18196783:18197469:-|three_prime_utr|ENSG00000105649|control|control|control (ssRNA)
RNA: GGGAGUUCUACAGUCCGACGAUCACUACCCGGGCCUGACCCGGCCCCUACCAGCCACGGGCACAAGACCCCUGCUCCUGACUUAGCCCGUCACCCUUAUUUAUUAUUGUAGCUAUUUAUUUAUUUAUUGAAGAUGUCCCCCAGCAACAGAGGAUUGAGCAUCA
B6: chr12:57516587:57516808:-|three_prime_utr|ENSG00000175197|control|control|control (ssRNA)
RNA: GGGAGUUCUACAGUCCGACGAUCCCCCCACUUGGGCCACACUACCCACCUUUCCCAGAAGUGGCUACUGACUACCCUCUCACUAGUGCCAAUGAUGUGACCCUCAAUCCCACAUACGCAGGGGGAAGGCUUGGAGUAGACAAACAACAGAGGAUUGAGCAUCA
B7: chr5:137752703:137752764:-|3pUTR|ENSG00000177733|msi1_unk|total|mutant (ssRNA)
RNA: GGGAGUUCUACAGUCCGACGAUCGGGAGGGAGUGAACUUGCUGAUUCUGCCGCAAAACCUGGGUGGGGGUUGGGGUGGGGGGCCGUUUACUUUGUUGUAAGGACUUGAUAACCUGGCUACAGCGUUUUCUAUGAAAUCUACUUCAACAGAGGAUUGAGCAUCA
B8: chr4:54297753:54297953:+|3pUTR|ENSG00000134853|msi1|FALSE|unique (ssRNA)
RNA: GGGAGUUCUACAGUCCGACGAUCUUUUUAUGAUGACAAUCAAAGCCGGCCUGAGAAACACUAUUUGUGACUUUUUAAACGAUUAGUGAUGUCCUUAAAAUGUGGUCUGCCAAUCUGUACAAAAUGGUCCUAUUUUUGUGAAGACAACAGAGGAUUGAGCAUCA
B9: ENSG00000198589:be:win_8301|CDS|ENSG00000198589|bound_else_gene|NA|bound_elsewhere_windowed (ssRNA)
RNA: GGGAGUUCUACAGUCCGACGAUCAGAUGAUAACAUAAGAGCCAUCCAGCUGAGCCGAGAUGGGCAGUACCUGCUCACAGGAGGAGACAGAGGAGUGGUCGUGGUCCGGCAGGUGUCGGACCUCAAGCAGCUCUUUGCCUAUCCCAACAGAGGAUUGAGCAUCA
B10: chr22:29528936:29529239:-|three_prime_utr|ENSG00000100296|control|control|control (ssRNA)
RNA: GGGAGUUCUACAGUCCGACGAUCGAUUCGUCCCCCAGGGACACCAGGUCACCAUCCAAGGGCAGUCCUGGUCUUUGGAGAACUAGCUGGACUAGUUCUGUGUAGCAGGAAGCUUGACUUGAAUGUCUUAGCACCCUGGAGUAGCAACAGAGGAUUGAGCAUCA
B11: ENSG00000107863:be:win_6451|3pUTR|ENSG00000107863|bound_else_gene|NA|bound_elsewhere_windowed (ssRNA)
RNA: GGGAGUUCUACAGUCCGACGAUCGUAAAAUACGUAACUUAAAUGAACAUAUUAAAUGUGUAUCUUUUCUUCAGAUACCAGAUUUGAUAUAAUGUUGUAACAUAGGUGUGUAGAUAGUGGAUCCUGGAUGGAACUGGCUUCUUUCAACAGAGGAUUGAGCAUCA
B12: chr6:52502144:52502313:-|3pUTR|ENSG00000065308|msi1|FALSE|unique (ssRNA)
RNA: GGGAGUUCUACAGUCCGACGAUCUCAGCCAUUCACAAGCAUUCAAAACCAAACCAAACAGCAGUUCAUAUACCUGCCUGAGAUAGGCUGGUCCUCACCUCCAGAGCCAGCCAGCCCCGUCAGGGGCCAAACUUACUACCUUGACAACAGAGGAUUGAGCAUCA
B13: ENSG00000126767:stop:overlap|stop_codon|ENSG00000126767|stop_codon|NA|stop_codon (ssRNA)
RNA: GGGAGUUCUACAGUCCGACGAUCUGAGCGGCCAGAAGUUCGUCUACAAGUUUGUGUCCUACCCUGAGUCCCAUUGCGCCCCGUAGCCCGGCCAAGCUCUCCUUCCAGUUUCCAUCCAGUGGCAGCGCCCAGGUGCACAUCCCUCAACAGAGGAUUGAGCAUCA
B14: ENSG00000011304:stop:overlap|stop_codon|ENSG00000011304|stop_codon|NA|stop_codon (ssRNA)
RNA: GGGAGUUCUACAGUCCGACGAUCACAACCACGACCUCGGGGAGAACCACCACCUGCGGGUCUCCUUCUCCAAGUCCACCAUCUAGGGGCACAGGCCCCCACGGCCGGGCCCCCUGGCGACAACUUCCAUCAUUCCAGAGAAAACAACAGAGGAUUGAGCAUCA
B15: chr3:98799072:98799370:-|3pUTR|ENSG00000057019|msi1|total|mutant (ssRNA)
RNA: GGGAGUUCUACAGUCCGACGAUCCAAAGCAUCGUUUUAAAGCACAUGGCCUUUUUUUUUUAAUUAUCCGUGGCCGUAAUAUACCGAAUGUAUUACAUAACUGUCACUGAAGUGGUUGGGGAAAAUGUGGUGACUGAGGUACAGCAACAGAGGAUUGAGCAUCA
B16: chr11:60923185:60923286:+|3pUTR|ENSG00000110108|msi1|total|mutant (ssRNA)
RNA: GGGAGUUCUACAGUCCGACGAUCCAGAGAGCAGGGUGAGCUGCCAGCUGCCCCUCUCCACCAGGGUACCCUGUCUUGGUGGUCCGGGGCCACUUUUCCUUUGAGGCUCCCGUGGAGGUGGAUGUCCUUCUCUGCCAGGCUUGGCAACAGAGGAUUGAGCAUCA
B17: chr14:22633770:22634811:-|CDS|ENSG00000255804|control|control|control (ssRNA)
RNA: GGGAGUUCUACAGUCCGACGAUCAGUGGAAGGAAGAAGGCCUUUAAUACCUGUGCUUCCCACCUGACCAUAGUCAUCAUUUCUAGUGGCAUCACUGUGUUUAUCUAUGUGACUCCCUCCCAGAAAGAAUAUCUGGAGAUCAACCAACAGAGGAUUGAGCAUCA
B18: chr1:223774945:223775046:+|3pUTR|ENSG00000162909|msi1|total|mutant (ssRNA)
RNA: GGGAGUUCUACAGUCCGACGAUCAAAUACACUUUGUAUCUGGACCUCAAAAUUAUGGGAACAUUUACUUAAACGGAUGAUCACCGCUGAAAAUAAUGAUACUGUCAAUUUGAGACCGCAGAAGUUUCACACAUCAAAGUAAAACAACAGAGGAUUGAGCAUCA
B19: ENSG00000172071:stop:overlap|stop_codon|ENSG00000172071|stop_codon|NA|stop_codon (ssRNA)
RNA: GGGAGUUCUACAGUCCGACGAUCCAUCGGGAACAAAACAUUCAAGACAGUCCAACAACUCCCAUAGCCCUUUGCCAAGCAAUUAGCCUUAAGUUGUGCUAGCAACCCUAAUAGGUGAUGCAGAUAAUAGCCUACUUCUUAGAACAACAGAGGAUUGAGCAUCA
B20: chr7:100040983:100041096:+|3pUTR|ENSG00000106261|unk|total|mutant (ssRNA)
RNA: GGGAGUUCUACAGUCCGACGAUCGACCGCCAAGCAAAAUCAGUAAUUAUUUUAAAAUGAACAUAUGUAUUUUUAUUAACUUUCCGUUAAAUACAGAUUUUACAACGAGGUCAGCAUAAGCCUAAAUCUAUACCGAGGGCUAACCAACAGAGGAUUGAGCAUCA
B21: chr4:56448489:56448593:+|CDS|ENSG00000128050|unk|FALSE|bound_elsewhere (ssRNA)
RNA: GGGAGUUCUACAGUCCGACGAUCCCCACAGUGGUCUGAGGAACAGCUGAUUGCUGCAAAAUUUUGCUUUGCUGGACUUCUUAUAGGCCAGACUGAAGUGGAUAUCAUGAGUCAUGCUACACAGGCUAUAUUUGAAAUACUGGACAACAGAGGAUUGAGCAUCA
B22: chr14:39095999:39096113:-|CDS|ENSG00000100934|unk|total|mutant (ssRNA)
RNA: GGGAGUUCUACAGUCCGACGAUCACAAUGACAACCUAUUUGGAAUUCAUUCAACAAAAUGAAGAACGAGAUGGAGUCCGAUUCCGUUGGAAUGUUUGGCCAUCAAGUCGACUGGAAGCUACAAGAAUGGUUGUUCCUGUGGCACAACAGAGGAUUGAGCAUCA

molecular target: MSI1 full-length (mouse, UniProt Q61474 1-362); assay: nsRBNS (natural sequence RNA bind-n-seq); RBNS binding buffer (assumed for nsRBNS): 25 mM Tris pH 7.5, 150 mM KCl, 3 mM MgCl2, 0.01% Triton X-100, 500 ug/ml BSA, 20 U/ml SUPERase-In, 4 C; UNK is unkempt and MSI1 is Musashi-1; names of the RNAs are library labels; protein concentration not given here; high values mean tight binding
Sequence of UniProt Q61474 (Q61474 whole entry): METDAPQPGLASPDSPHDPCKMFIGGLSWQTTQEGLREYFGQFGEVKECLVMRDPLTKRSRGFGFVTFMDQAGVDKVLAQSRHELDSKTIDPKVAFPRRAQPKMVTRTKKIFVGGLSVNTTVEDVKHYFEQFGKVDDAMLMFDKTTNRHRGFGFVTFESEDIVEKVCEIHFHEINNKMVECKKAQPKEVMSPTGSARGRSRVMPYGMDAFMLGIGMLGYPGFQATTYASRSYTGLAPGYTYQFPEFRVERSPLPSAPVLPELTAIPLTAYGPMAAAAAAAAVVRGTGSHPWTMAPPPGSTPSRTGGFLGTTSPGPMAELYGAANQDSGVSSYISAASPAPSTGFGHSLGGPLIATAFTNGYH

**Q.** With B1 as the binder, how does the binding signal read?
**A.** Its binding signal is 0.893 enrichment R.

**Q.** With B2 as the binder, how does the binding signal read?
**A.** Its binding signal is 3.7 enrichment R.

**Q.** How did the binding signal turn out when B3 was run?
**A.** Its binding signal is 5.16 enrichment R.

**Q.** For B4, which binding signal is on record?
**A.** The binding signal was 0.316 enrichment R.

**Q.** How did the binding signal turn out when B5 was run?
**A.** Its binding signal is 48.8 enrichment R.

**Q.** Which binding signal does the source give for B6 here?
**A.** Its binding signal is 0.549 enrichment R.

**Q.** How did the binding signal turn out when B7 was run?
**A.** Its binding signal is 0.73 enrichment R.

**Q.** B8 was tested. Which binding signal did it give?
**A.** Its binding signal is 0.329 enrichment R.

**Q.** For B9, which binding signal is on record?
**A.** The binding signal was 0.431 enrichment R.

**Q.** Which binding signal does the source give for B10 here?
**A.** Its binding signal is 0.604 enrichment R.

**Q.** B11 was tested. Which binding signal did it give?
**A.** Its binding signal is 0.743 enrichment R.

**Q.** How did the binding signal turn out when B12 was run?
**A.** Its binding signal is 0.706 enrichment R.

**Q.** How did the binding signal turn out when B13 was run?
**A.** The binding signal was 0.671 enrichment R.

**Q.** With B14 as the binder, how does the binding signal read?
**A.** The binding signal was 0.494 enrichment R.

**Q.** With B15 as the binder, how does the binding signal read?
**A.** Its binding signal is 0.493 enrichment R.

**Q.** For B16, which binding signal is on record?
**A.** Its binding signal is 0.363 enrichment R.

**Q.** B17 was tested. Which binding signal did it give?
**A.** Its binding signal is 0.57 enrichment R.

**Q.** For B18, which binding signal is on record?
**A.** Its binding signal is 0.211 enrichment R.

**Q.** For B19, which binding signal is on record?
**A.** Its binding signal is 2.07 enrichment R.

**Q.** Which binding signal does the source give for B20 here?
**A.** The binding signal was 1.13 enrichment R.

**Q.** B21 was tested. Which binding signal did it give?
**A.** The binding signal was 0.279 enrichment R.

**Q.** B22 was tested. Which binding signal did it give?
**A.** The binding signal was 0.243 enrichment R.

Source: publication PMC12136788
